Measured values published in PubChem BioAssay (NCATS).
The list shows a part of the results. These are further read-outs of the screen, such as a control signal, another cell line or another target. No call is given for them. The list favours compounds with an active or inconclusive main result. The note in brackets gives the kind of curve behind each potency; many fits are weak.

Assay: qHTS Assay for Lipid Storage Modulators (AID 1519)
Conditions: Drosophila S3 cells, BODIPY lipid droplet/cell ratio, laser cytometry, cells loaded with oleic acid
Outline: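 Cells seeded at 5,000 per well were treated with compounds over a concentration series and loaded with oleic acid (400 uM, as added). Lipid droplet fluorescence (488 nm excitation, 500-530 nm channel) was read by laser-scanning cytometry and normalized to 20 uM Triacsin C.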

[1] = measured here: cell count channel max response
[2] = measured here: cell number channel AC50
[3] = measured here: lipid (BODIPY) channel AC50
[4] = measured here: lipid channel max response
Tags give direction and shape of the fitted curve.

Compound	max response [1] [%]	AC50 [2]	AC50 [3]	max response [4] [%]
CC(=O)OCC[N+](C)(C)C	42.5	22400 nM [rising, partial curve, poor fit]	31600 nM [rising, partial curve, poor fit]	55.4
COCCn1c(=O)c(-c2ccc(OC)cc2)nc2cnc(Oc3ccc(OC)cc3)nc21	-2.47	1260 nM [rising, full curve, poor fit]	1120 nM [rising, full curve]	1.15
OC[C@@H](O)COc1cccc2ccccc12	30.4	10000 nM [rising, full curve, poor fit]	7940 nM [rising, full curve, poor fit]	44.2
Cc1cc(O)cc(=O)o1	24.6		22400 nM [rising, partial curve, poor fit]	39.2
Cc1ccccc1-c1cncnc1NCc1cccnc1	43	2510 nM [rising, full curve]	2240 nM [rising, full curve]	53.8
O=[N+]([O-])c1cccc2c[nH]nc12	99.6	15800 nM [rising, partial curve, poor fit]	14100 nM [rising, partial curve, poor fit]	131
COc1ccc(CNc2cc(-c3cccnc3)ncn2)c(OC)c1	20.7	1260 nM [rising, full curve, poor fit]	1120 nM [rising, full curve, poor fit]	29.8
O=c1c(-c2ccc(Cl)cc2)nc2cncnc2n1Cc1ccc(F)cc1	17	1410 nM [rising, full curve, poor fit]	1120 nM [rising, full curve, poor fit]	22.4
CCOC(=O)c1c(C)[nH]c2ccc3c(c12)CN1CCc2cc(OC)ccc2[C@@H]1O3	27.7	2820 nM [rising, full curve, poor fit]	2820 nM [rising, full curve, poor fit]	7.43
COc1cccc(Cn2c(=O)c(-c3ccc(F)c(F)c3)nc3cncnc32)c1	27.2		35.5 nM [rising, full curve]	39.5
Cc1noc(C)c1-c1cncnc1-n1ccnc1	26.3	7080 nM [rising, partial curve, poor fit]	282 nM [rising, full curve, poor fit]	33.1
O=C(c1cnccn1)N1CCC2(CCCN(Cc3ccncc3)C2)CC1	32.5	5.62 nM [rising, full curve, poor fit]	10 nM [rising, full curve, poor fit]	36.7
CC[C@H](C)C(=O)O[C@H]1CCC=C2C=C[C@H](C)[C@H](CC[C@@H]3C[C@H](O)CC(=O)O3)[C@H]21	52.4	17800 nM [rising, partial curve, poor fit]	20000 nM [rising, partial curve, poor fit]	55.3
COc1ccc2[nH]cc(CCNc3ncncc3-c3cccnc3)c2c1	22.8	112 nM [rising, full curve, poor fit]	112 nM [rising, full curve, poor fit]	26.7
C[C@@](Cc1ccccc1)(NC(=O)CN)c1ccccc1	73.8	25100 nM [rising, partial curve]	25100 nM [rising, partial curve]	97.7
CN(C)c1ccc(-c2cncnc2-n2ccnc2)cc1	32.8	631 nM [rising, full curve]	794 nM [rising, full curve]	38.4
CN/C(=C\[N+](=O)[O-])NCCSCc1ccc(CN(C)C)o1	-13.6	20000 nM [falling, single point]	20000 nM [falling, single point]	-20.2
CCCCCCCCCCCCCCCC(=O)O[C@H](CC(=O)O)C[N+](C)(C)C	33.9	7940 nM [rising, partial curve, poor fit]	14100 nM [rising, partial curve, poor fit]	49.2
CC(=O)NCCNc1ccnc(-c2ccccc2C)n1	28.7	1780 nM [rising, full curve, poor fit]	1580 nM [rising, full curve]	33.3
COc1ccc(CNc2ccnc(-c3ccc(N(C)C)cc3)n2)c(OC)c1	22	2510 nM [rising, partial curve]	1780 nM [rising, full curve]	24.1

Compound	max response [1] [%]	AC50 [2]	AC50 [3]	max response [4] [%]
C[C@H](C(=O)O)c1cccc(C(=O)c2ccccc2)c1	34.9	39800 nM [rising, single point]	39800 nM [rising, partial curve, poor fit]	55.7
COC(=O)CC[C@@H](C)[C@H]1CC[C@H]2[C@@H]3CC[C@@H]4C[C@H](O)CC[C@]4(C)[C@H]3C[C@H](O)[C@]12C	43.9	14100 nM [rising, partial curve, poor fit]	14100 nM [rising, partial curve, poor fit]	51.5
O=c1cc(-c2cccc(O)c2)oc2c(O)c(O)ccc12	32.4	20000 nM [rising, partial curve, poor fit]	17800 nM [rising, partial curve, poor fit]	56.4
COc1ccc2[nH]cc(CCNc3ncncc3-c3cccc(NS(C)(=O)=O)c3)c2c1	39.2	3160 nM [rising, partial curve]	2000 nM [rising, full curve]	47
N#CCCn1c(=O)c(-c2cccs2)nc2cnc(Oc3ccccc3)nc21	20.3	1120 nM [rising, full curve]	794 nM [rising, full curve, poor fit]	4.86
COc1ncc2nc(CCc3ccccc3)c(=O)n(Cc3ccc(F)cc3)c2n1	16.6	1410 nM [rising, full curve]	1000 nM [rising, full curve, poor fit]	18.2
COC(=O)C1OC(=O)C2OC23[C@]2(C)C(OC(C)=O)CC4C(C)(C)C(=O)CC[C@]4(C)C2CC[C@@]13C (some centres undefined)	30.4	2240 nM [rising, partial curve, poor fit]	1780 nM [rising, partial curve, poor fit]	39.2
COc1cccc(-c2nccc(NCc3ccccc3)n2)c1	12.4	2240 nM [rising, partial curve]	2240 nM [rising, partial curve]	15.8
O=c1c(-c2cccs2)nc2cnc(Oc3ccccc3)nc2n1Cc1cccs1	22.8	200 nM [rising, full curve]	1780 nM [falling, full curve]	-85.9
CNc1nc(-c2cccnc2)nc2ccccc12	32.2	316 nM [rising, full curve, poor fit]	398 nM [rising, full curve, poor fit]	31.8
COc1ccccc1CCn1c(=O)c(-c2cn(C)c3ccccc23)nc2cncnc21	19.9	126 nM [rising, full curve, poor fit]	112 nM [rising, full curve, poor fit]	20.6
c1csc(CNc2ncncc2-c2ccoc2)c1	36.8	3980 nM [rising, full curve]	2820 nM [rising, full curve, poor fit]	39.2
COCCn1c(=O)c(-c2ccccc2)nc2cnc(N3CCOCC3)nc21	18.7	178 nM [rising, full curve, poor fit]	282 nM [rising, full curve, poor fit]	25.9
COc1ccc(/C=C/C(=O)c2cccs2)cc1OC	54.9	2510 nM [rising, full curve]	2820 nM [rising, full curve]	70.1
CCNc1ncc2nc(-c3ccc(F)cc3)c(=O)n(Cc3ccc(F)cc3)c2n1	37.2	14100 nM [rising, partial curve]	14100 nM [rising, partial curve]	40.1
COCCNc1nc(-c2cccc(NS(C)(=O)=O)c2)nc2ccccc12	35.2	501 nM [rising, full curve, poor fit]	1120 nM [rising, partial curve]	43.2
Cc1noc(C)c1-c1nc(N2CCN(C)CC2)c2ccccc2n1	38.8	3550 nM [rising, full curve, poor fit]	3160 nM [rising, partial curve, poor fit]	42.9
O=c1c(-c2ccccc2)nc2cncnc2n1Cc1ccc(F)cc1	16.9	63.1 nM [rising, full curve, poor fit]	63.1 nM [rising, full curve, poor fit]	22.4
CCCCOc1cc(C[C@@H]2CNC(=O)N2)ccc1OC	78.6	15800 nM [rising, partial curve, poor fit]	17800 nM [rising, partial curve, poor fit]	99.9
